Measurements: the supplement of paper PMC4604168 (melanoma cell lines)
Some of the results follow. Single values are uncertain, as repeats are few or missing.

Legend:
Test in all cases: cell count relative to DMSO control; melanoma cells; higher = more viable cells
Settings in all cases: library dose: standard library concentration; 72 h
[1] = test system: G361
[2] = test system: IPC-298
[3] = test system: IST-MEL1
[4] = test system: LOXIMVI
[5] = test system: MEL-HO
[6] = test system: MeWo
[7] = test system: RPMI7951
[8] = test system: RVH-421
[9] = test system: SkMel28
[10] = test system: SkMel2
[11] = test system: SkMel30
[12] = test system: SkMel5
[13] = test system: UACC257
[14] = test system: UACC62
[15] = test system: WM115
[16] = test system: WM1716
[17] = test system: WM1745
[18] = test system: WM3526
[19] = test system: LB2518-MEL
[20] = test system: MZ2-MEL
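Further: cells treated in 1,536-well plates, then fixed and DAPI-stained, with nuclei counted from automated high-throughput microscope images.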

| Structure (SMILES) | cell count [1] [%] | cell count [2] [%] | cell count [3] [%] | cell count [4] [%] | cell count [5] [%] | cell count [6] [%] | cell count [7] [%] | cell count [8] [%] | cell count [9] [%] | cell count [10] [%] | cell count [11] [%] | cell count [12] [%] | cell count [13] [%] | cell count [14] [%] | cell count [15] [%] | cell count [16] [%] | cell count [17] [%] | cell count [18] [%] | cell count [19] [%] | cell count [20] [%] |
| --- | --- | --- | --- | --- | --- | --- | --- | --- | --- | --- | --- | --- | --- | --- | --- | --- | --- | --- | --- | --- |
| CO[C@H]1C[C@@H]2CC[C@@H](C)[C@@](O)(O2)C(=O)C(=O)N2CCCC[C@H]2C(=O)O[C@H]([C@H](C)C[C@@H]2CC[C@@H](OCCO)[C@H](OC)C2)CC(=O)[C@H](C)/C=C(\C)[C@@H](O)[C@@H](OC)C(=O)[C@H](C)C[C@H](C)/C=C/C=C/C=C/1C [everolimus] + CN(C)S(=O)(=O)c1ccc2c(c1)/C(=C/c1cc3c([nH]1)CCCC3)C(=O)N2 [SU6656] (first compound 0.1 µM, partner dose 2 µM) | 63.3 | 83.9 | 65.7 | 84.5 | 80 | 73.5 | 52.3 | 78.6 | 54.6 | 80.2 | 73.6 | 64.5 | 90.5 | 71.8 | 41.5 | 69.2 | 74 | 64.8 | – | – |
| CO[C@H]1C[C@@H]2CC[C@@H](C)[C@@](O)(O2)C(=O)C(=O)N2CCCC[C@H]2C(=O)O[C@H]([C@H](C)C[C@@H]2CC[C@@H](OCCO)[C@H](OC)C2)CC(=O)[C@H](C)/C=C(\C)[C@@H](O)[C@@H](OC)C(=O)[C@H](C)C[C@H](C)/C=C/C=C/C=C/1C [everolimus] + CCc1ccc(CCOc2ccc(CC3SC(=O)NC3=O)cc2)nc1 [pioglitazone] (first compound 0.1 µM, partner dose 10 µM) | 59.1 | 77.1 | 75 | 97.5 | 77.6 | 64.1 | 75.3 | 86 | 42.6 | 74.7 | 73.9 | 59.1 | 96.1 | 79.2 | 80.8 | 70.9 | – | 89.6 | – | – |
| CO[C@H]1C[C@@H]2CC[C@@H](C)[C@@](O)(O2)C(=O)C(=O)N2CCCC[C@H]2C(=O)O[C@H]([C@H](C)C[C@@H]2CC[C@@H](OCCO)[C@H](OC)C2)CC(=O)[C@H](C)/C=C(\C)[C@@H](O)[C@@H](OC)C(=O)[C@H](C)C[C@H](C)/C=C/C=C/C=C/1C [everolimus] + N#Cc1c(O)c2c(-c3ccc(-c4ccccc4O)cc3)csc2[nH]c1=O [A769662] (first compound 0.1 µM, partner dose 10 µM) | 71.5 | 80 | 57.2 | 90.2 | 66.1 | 66.9 | 109 | 73.1 | 42.6 | 68 | 76 | 39.7 | 94.2 | 73.4 | 62.3 | 70.6 | – | 69.8 | 73.5 | 77.3 |
| Nc1nc(F)nc2c1ncn2[C@@H]1O[C@H](CO)[C@@H](O)[C@@H]1O [fludarabine] + CCc1ccc(CCOc2ccc(CC3SC(=O)NC3=O)cc2)nc1 [pioglitazone] (first compound 1 µM, partner dose 10 µM) | 93.7 | 73.1 | 69 | 101 | 81.2 | 99 | 54 | 85.6 | 3.96 | 1.5 | 20.2 | 38.9 | 20 | 84.4 | 86.4 | 109 | – | 27.6 | 85.7 | 111 |
| CO[C@H]1C[C@@H]2CC[C@@H](C)[C@@](O)(O2)C(=O)C(=O)N2CCCC[C@H]2C(=O)O[C@H]([C@H](C)C[C@@H]2CC[C@@H](OCCO)[C@H](OC)C2)CC(=O)[C@H](C)/C=C(\C)[C@@H](O)[C@@H](OC)C(=O)[C@H](C)C[C@H](C)/C=C/C=C/C=C/1C [everolimus] + CC(C)CCN1c2nc(Nc3cc(F)c(O)c(F)c3)ncc2N(C)C(=O)C1C [BID1870] (first compound 0.1 µM, partner dose 1 µM) | 54.1 | 60.3 | 66.1 | 65 | 61.7 | 48.8 | 70.3 | 75.4 | 32.9 | – | 55.7 | 47.1 | 74.1 | 59.6 | 62 | 70.3 | – | 57.3 | – | – |
| Nc1ncn([C@H]2C[C@H](O)[C@@H](CO)O2)c(=O)n1 [decitabine] + Cn1cncc1[C@@](N)(c1ccc(Cl)cc1)c1ccc2c(c1)c(-c1cccc(Cl)c1)cc(=O)n2C [tipifarnib] (first compound 0.5 µM, partner dose 0.05 µM) | 87.3 | 69.6 | 68.1 | 93.1 | 91.1 | 84.3 | 73 | 78.9 | 94.9 | 97.1 | 117 | 115 | 87.2 | 78.6 | 78.4 | 63.7 | 112 | 97.3 | – | – |
| CO[C@H]1C[C@@H]2CC[C@@H](C)[C@@](O)(O2)C(=O)C(=O)N2CCCC[C@H]2C(=O)O[C@H]([C@H](C)C[C@@H]2CC[C@@H](OCCO)[C@H](OC)C2)CC(=O)[C@H](C)/C=C(\C)[C@@H](O)[C@@H](OC)C(=O)[C@H](C)C[C@H](C)/C=C/C=C/C=C/1C [everolimus] + Cn1cc(/C=C2\C(=O)Nc3cccnc32)c2ccccc21 [GW441756] (first compound 0.1 µM, partner dose 2 µM) | 57.7 | 58.1 | 71.3 | 73.3 | 63.2 | 68.7 | 69.9 | 79.9 | 42.8 | 61.6 | 77.5 | 51.2 | 72.8 | 67.9 | 59.4 | 71.4 | – | 67.9 | 70.5 | 68.8 |
| CC(=O)O[C@@]12CO[C@@H]1C[C@H](O)[C@@]1(C)C(=O)[C@H](O)C3=C(C)[C@@H](OC(=O)[C@H](O)[C@@H](NC(=O)OC(C)(C)C)c4ccccc4)C[C@@](O)([C@@H](OC(=O)c4ccccc4)[C@H]21)C3(C)C [Docetaxel] + COc1ccc(COc2ccc(Cc3cnc(N)nc3N)cc2OC)cc1 [GW2580] (first compound 0.0005 µM, partner dose 5 µM) | 13.8 | 37.9 | 33.9 | 59.4 | 36.6 | 20.3 | 22.5 | 53.2 | 12.9 | 13.6 | 38.9 | 28.9 | 60.2 | 57.8 | 34.9 | 31.2 | – | 28 | 42 | 39.1 |
| CO[C@H]1C[C@@H]2CC[C@@H](C)[C@@](O)(O2)C(=O)C(=O)N2CCCC[C@H]2C(=O)O[C@H]([C@H](C)C[C@@H]2CC[C@@H](OCCO)[C@H](OC)C2)CC(=O)[C@H](C)/C=C(\C)[C@@H](O)[C@@H](OC)C(=O)[C@H](C)C[C@H](C)/C=C/C=C/C=C/1C [everolimus] + COCC[n+]1c2c(n(Cc3cnccn3)c1C)C(=O)c1ccccc1C2=O [YM155] (first compound 0.1 µM, partner dose 0.002 µM) | 62.6 | 42.9 | 58.8 | 79.9 | 71.3 | 45.1 | 42.5 | 121 | 48.6 | 45.4 | 64.1 | 37.8 | 29.2 | 68.6 | 54.1 | 65.5 | 65.5 | 45.6 | – | – |
| CO[C@H]1C[C@@H]2CC[C@@H](C)[C@@](O)(O2)C(=O)C(=O)N2CCCC[C@H]2C(=O)O[C@H]([C@H](C)C[C@@H]2CC[C@@H](OCCO)[C@H](OC)C2)CC(=O)[C@H](C)/C=C(\C)[C@@H](O)[C@@H](OC)C(=O)[C@H](C)C[C@H](C)/C=C/C=C/C=C/1C [everolimus] + O=C1NC(=O)/C(=C/c2ccc(-c3ccc(F)cc3O)o2)S1 [AS252424] (first compound 0.1 µM, partner dose 5 µM) | 67.5 | 76 | 92.1 | 63.6 | 65.8 | 68 | 77.1 | 115 | 49.2 | 64.2 | 70.4 | 70.8 | 97.2 | 89 | 97.6 | 76.8 | – | 73.8 | 84.7 | 70.7 |
| CC(=O)O[C@@]12CO[C@@H]1C[C@H](O)[C@@]1(C)C(=O)[C@H](O)C3=C(C)[C@@H](OC(=O)[C@H](O)[C@@H](NC(=O)OC(C)(C)C)c4ccccc4)C[C@@](O)([C@@H](OC(=O)c4ccccc4)[C@H]21)C3(C)C [Docetaxel] + COc1cc2ncnc(Nc3ccc(Oc4ccccc4)cc3)c2cc1OC [SrcI1] (first compound 0.0005 µM, partner dose 10 µM) | 13.5 | 38.5 | 47.1 | 57.7 | 45 | 29.4 | 18.3 | 64.2 | 28.3 | 37.3 | 48.2 | 37.1 | 63.9 | 51.5 | 36.6 | 32.3 | – | 37 | – | – |
| CC(=O)O[C@@]12CO[C@@H]1C[C@H](O)[C@@]1(C)C(=O)[C@H](O)C3=C(C)[C@@H](OC(=O)[C@H](O)[C@@H](NC(=O)OC(C)(C)C)c4ccccc4)C[C@@](O)([C@@H](OC(=O)c4ccccc4)[C@H]21)C3(C)C [Docetaxel] + O=C(O)c1ccc2c(c1)nc(Nc1cccc(Cl)c1)c1ccncc12 [CX4945] (first compound 0.0005 µM, partner dose 2 µM) | 11.4 | 32.9 | 38.2 | 31.2 | 31.6 | 29.4 | 20.7 | 42 | 9.97 | 20.5 | 36.1 | 27.4 | 53 | 36.5 | 32.8 | 22.8 | 22.9 | 29.6 | – | – |
| CO[C@H]1C[C@@H]2CC[C@@H](C)[C@@](O)(O2)C(=O)C(=O)N2CCCC[C@H]2C(=O)O[C@H]([C@H](C)C[C@@H]2CC[C@@H](OCCO)[C@H](OC)C2)CC(=O)[C@H](C)/C=C(\C)[C@@H](O)[C@@H](OC)C(=O)[C@H](C)C[C@H](C)/C=C/C=C/C=C/1C [everolimus] + Cc1ccc(NC(=O)c2cccc(N(C)C)c2)cc1NC(=O)c1ccc(O)cc1 [ZM336372] (first compound 0.1 µM, partner dose 10 µM) | 88.1 | 104 | 83.4 | 117 | 104 | 90.1 | 85.7 | 134 | 128 | – | 129 | 139 | 125 | 134 | 64.5 | 90.8 | 94.5 | 76.9 | – | – |
| Nc1nc(F)nc2c1ncn2[C@@H]1O[C@H](CO)[C@@H](O)[C@@H]1O [fludarabine] + c1cc(-c2cnn3cc(-c4ccc(OCCN5CCCCC5)cc4)cnc23)ccn1 [Dorsomorphin] (first compound 1 µM, partner dose 2 µM) | 51.5 | 80 | 72 | 95.6 | 78.5 | 49.4 | 60.3 | 112 | 2.06 | 2.2 | 21.7 | 19.2 | 34.4 | 64.4 | 61.1 | 69.1 | – | 29.9 | 63 | 75.8 |
